# Test results published in PubChem BioAssay AID488969 (Vanderbilt High Throughput Screening Facility, 2010).
# Whole data set: some 110,000 compounds, median “z-score” near -0.1, cut for the highest 2% near 2. This is one part of the list.
# Biological target: Metabotropic glutamate receptor 8 (Rattus norvegicus) (UniProt P70579)
# Test: mGluR8 Gi/Go-coupled signaling modulation – cell-based, rat, thallium flux, HTS, primary screen (AID 488969)
# Details: HEK293 rat mGluR8, GIRK (G protein-gated inwardly rectifying potassium channel) thallium flux, FluoZin2; at 10 µM; stronger effect = higher value; submaximal glutamate (EC20) added with thallium
# Sequence of UniProt P70579 (P70579 whole entry, looked up): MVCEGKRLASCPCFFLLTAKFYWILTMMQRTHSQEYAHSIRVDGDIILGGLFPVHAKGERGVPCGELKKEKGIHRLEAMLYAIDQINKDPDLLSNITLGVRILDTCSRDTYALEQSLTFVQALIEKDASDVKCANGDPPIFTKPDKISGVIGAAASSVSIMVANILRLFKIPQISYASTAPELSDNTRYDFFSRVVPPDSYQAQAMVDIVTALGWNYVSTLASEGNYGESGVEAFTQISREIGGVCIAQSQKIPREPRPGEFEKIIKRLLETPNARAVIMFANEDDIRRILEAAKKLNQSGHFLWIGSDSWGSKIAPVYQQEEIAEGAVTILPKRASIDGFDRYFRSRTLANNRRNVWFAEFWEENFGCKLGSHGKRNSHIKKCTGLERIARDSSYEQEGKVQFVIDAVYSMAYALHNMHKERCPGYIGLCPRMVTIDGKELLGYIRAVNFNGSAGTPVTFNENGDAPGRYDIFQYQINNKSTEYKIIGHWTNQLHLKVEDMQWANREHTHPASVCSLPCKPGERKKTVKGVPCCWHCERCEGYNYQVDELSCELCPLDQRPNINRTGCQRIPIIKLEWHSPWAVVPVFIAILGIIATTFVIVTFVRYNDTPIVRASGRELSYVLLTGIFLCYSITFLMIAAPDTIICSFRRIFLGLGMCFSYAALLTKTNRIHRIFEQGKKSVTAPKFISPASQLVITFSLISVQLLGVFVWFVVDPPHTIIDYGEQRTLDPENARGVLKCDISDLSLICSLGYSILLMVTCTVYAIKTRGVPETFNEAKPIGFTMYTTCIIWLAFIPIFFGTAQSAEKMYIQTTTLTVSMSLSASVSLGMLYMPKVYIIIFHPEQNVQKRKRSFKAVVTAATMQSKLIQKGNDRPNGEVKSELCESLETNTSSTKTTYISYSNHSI
row,SMILES,z-score
1,CCOc1ccccc1C(=O)N(CN1CCCC1=O)c1cccc(Cl)c1,-0.453
2,CCCn1c(CN2CCN(c3cccc(Cl)c3)CC2)nc2c1c(=O)n(C)c(=O)n2C,-0.255
3,O=[N+]([O-])c1cc(S(=O)(=O)C(F)(F)F)ccc1N1CCN(c2ccccc2)CC1,-0.869
4,COC(=O)CCC(=O)Nc1ccc(NC(C)=O)cc1,0.0981
5,COc1ccc(/C=C/C(=O)Nc2ccc(N3CCOCC3)cc2)cc1,-0.219
6,COCCCNC(=O)CN1CCN(Cc2ccc(Cl)cc2)C1=O,-0.115
7,O=C1CC(Sc2ncccn2)C(=O)N1c1ccccc1 (configuration not stated),0.494
8,O=C(Nc1sc2c(c1-c1nc3ccccc3[nH]1)CCCC2)C1CC1,0.0135
9,CCOC(=O)N1CCC(NS(=O)(=O)c2ccc3c(c2)CCN3C(C)=O)CC1,0.165
10,c1ccc(-c2n[nH]nc2-c2ccccc2)cc1,-1.09
11,CC1CCc2sc(C(=O)N/N=C/c3ccc([N+](=O)[O-])cc3)cc2C1 (configuration not stated),0.00376
12,C/C=C/C(=O)OCC(=O)Nc1ccc(F)cc1Cl,-0.0749
13,O=C1C=C(c2ccccc2)OC2(CCCC2)O1,0.389
14,Cn1c(NCc2ccccc2)nc2c1c(=O)n(Cc1ccc(Br)cc1)c(=O)n2C,-0.261
15,O=C(CC1SC(=Nc2ccc(OC(F)F)cc2)N(CCC2=CCCCC2)C1=O)Nc1ccccc1F (configuration not stated),0.0938
16,CC(=O)C1=C(O)C(=O)N(CCc2c[nH]c3ccccc23)C1c1ccco1 (configuration not stated),-0.832
17,CCOc1cc(C=O)c(Br)cc1OC1CCCC1,0.0863
18,COc1ccccc1N1CCN(/N=C/c2cc(OC)c(O)c(OC)c2)CC1,-0.158
19,O=C(Nc1ccc(C(F)(F)F)cc1)c1cc(-c2cccnc2)nc2ccc(Br)cc12,-0.0141
20,COc1ccc(C(=O)Oc2cccnc2)cc1,-0.173
21,CC(=O)N1Cc2ccccc2CC1C(=O)O (configuration not stated),-0.108
22,CC1CCCCN1C(=O)c1ccc(S(=O)(=O)N2CCCCC2C)cc1 (configuration not stated),0.00201
23,Cc1nc(-c2cccc(NS(C)(=O)=O)c2)cs1,-0.0631
24,O=C(O)C1CCCN1S(=O)(=O)c1cc(Cl)ccc1Cl (configuration not stated),-1.31

row,SMILES,z-score
1,CC(C)(O)C1=NOC(c2ccccc2)C1 (configuration not stated),0.128
2,COc1ccccc1-c1cc(-c2ccc(C)cc2)nc(SCc2nnc(-c3ccccc3)o2)c1C#N,0.695
3,O=c1[nH]c2cc(Cl)c([N+](=O)[O-])nc2[nH]1,-0.134
4,c1ccc(CNc2nc(-c3cccs3)nc3ccccc23)cc1,0.32
5,O=C(Nc1ccc(N2CCOCC2)cc1)C1CCCCC1,-0.498
6,O=C(CSc1ccc2nnc(-c3ccncc3)n2n1)Nc1ccccc1F,0.149
7,CCOc1ccc2nnc(-c3ccc(Br)cc3)n2n1,-0.27
8,Cc1cccc(Nc2nc3c(S(=O)(=O)c4ccccc4)nnn3c3ccccc23)c1,-0.166
9,O=C(OCc1nnc(-c2ccccc2)o1)c1ccc2ccccc2n1,-0.761
10,CCOC(=O)C(O)(CC(=O)Nc1cc(F)ccc1C)C(F)(F)F (configuration not stated),-0.467
11,O=C(Cn1cccc1C(=O)c1ccccc1)NCc1ccc2c(c1)OCO2,0.0786
12,O=S(=O)(Nc1ccc(O)c(Sc2nc3ccccc3s2)c1)c1ccc(F)cc1,-0.298
13,COc1cccc(C(=O)n2cnnc2N)c1OC,0.0291
14,Clc1ncccc1-c1nc2ccccc2n1Cc1ccccc1,-0.494
15,C/C(=N/Oc1nc(C)cc(C)n1)c1ccc(F)cc1,-0.115
16,CCOC(=O)c1[nH]c2ccc(F)cc2c1NC(=O)Nc1ccccc1OC,-0.0906
17,CCOC(=O)/C=C1\Nc2ccccc2OC1=O,0.403
18,Cc1c(O)cc2n(c1=O)-c1ccccc1C2(C)C,-0.203
19,Cc1ccc(C(CC(=O)c2ccco2)SCCO)cc1 (configuration not stated),0.0617
20,CCc1cc(C(c2cccc(OC)c2)N2CCOCC2)c(NC(=O)c2ccccc2)s1 (configuration not stated),-2
21,Cn1c2c(c(=O)n(C)c1=O)CN(Cc1ccc3c(c1)OCO3)CN2,-0.144
22,CCN(CC)C(=O)N1CCc2ccccc2C1CN1C(=O)c2ccccc2C1=O (configuration not stated),-0.00875
23,O=C(COC(=O)C1CCN(S(=O)(=O)c2cc([N+](=O)[O-])ccc2Cl)CC1)Nc1ncc(Cl)cc1Cl,-0.225
24,Cc1ccc(NC(=O)c2cc(N3C(=O)C=CC3=O)ccc2Cl)cc1C,-0.0892

row,SMILES,z-score
1,Cc1ccc(-c2noc(CCC(=O)NCc3ccc4c(c3)OCO4)n2)cc1,-0.272
2,Cc1c(NS(=O)(=O)c2ccc3c(c2)CCN3C(=O)C2CC2)c(=O)n(-c2ccccc2)n1C,-0.246
3,CCCCCn1c(=O)[nH]c2cc(C(=O)NCCCN3CCCCC3)ccc2c1=O,0.476
4,CCOC(=O)C1CCN(S(=O)(=O)c2cc(Cl)c(C)cc2OC)CC1,0.166
5,O=C(NCc1ccncc1)c1ccc(Cl)c(S(=O)(=O)N2CCOCC2)c1,-0.146
6,COc1ccc(CC(=O)Nc2cccc(C(=O)O)c2C)cc1,1.16
7,O=C(O)c1cccc(Nc2ncnc3c2cnn3-c2ccccc2)c1,-1.14
8,O=C(CSc1nnc(-c2ccc(Br)o2)n1Cc1ccccc1)c1ccccc1F,-0.0977
9,CC(C)c1nc2oc3ccccc3c(=O)c2c(=O)n1-c1ccccc1,-1.85
10,CCCc1nc2c(=O)n(C)c(=O)[nH]c2n1C,-0.154
11,O=C(CSc1ccc2nnc(-c3ccccc3)n2n1)NCC1CCCO1 (configuration not stated),-1.29
12,Cc1cc(C)n(C2CCCCC2OC(=O)c2ccccc2)n1 (configuration not stated),-0.181
13,COc1ccc(S(=O)(=O)Nc2ccccc2C(=O)NCc2ccco2)cc1Br,0.0705
14,CC(NC(=O)c1cncc(Br)c1)c1ccc(S(N)(=O)=O)cc1 (configuration not stated),0.0712
15,O=C(CSc1nc2c(sc3ccccc32)c(=O)n1Cc1ccco1)NCC1CCCO1 (configuration not stated),-0.508
16,COC(=O)c1ccc(CNC(=O)CSc2nc3sc(C)c(C)c3c(=O)n2C)o1,-0.37
17,N#Cc1c(-c2ccc(Cl)cc2)c(C#N)c(=O)n(N)c1N,-0.392
18,CNC(=O)c1nn(-c2ccc(C)cc2)ccc1=O,0.09
19,Cc1cc(=O)n2[nH]c(C(=O)O)nc2n1,-0.282
20,Cc1ccc(-c2nn(CC(=O)Nc3cccnc3)c(=O)c3ccccc23)cc1,-0.291
21,Cc1ccc(C(=O)NC(=S)Nc2cc(C(F)(F)F)ccc2Cl)cc1,0.523
22,c1ccc(CCc2nn3c(Cn4cnc5ccccc54)nnc3s2)cc1,-0.199
23,CCOC(=O)C1=C(CSc2nccn2C)NC(=O)NC1c1cc(C)ccc1C (configuration not stated),-0.122
24,CC(C)C(c1nnnn1C1CCCC1)N(C)C1CCCCC1 (configuration not stated),-0.559
